Reference: article PMC5934895
No constants are given. Whether binding was seen depends on the method and setting. Binding seen in cells or lysates may run through a third protein. Some entries that bind do so weakly or less than the wild type. For some assays here: Sequences can lack the tags named with a protein.

Sequences of proteins named here, by UniProt entry; tags and fusion partners are left off. A change or cut given only in a name is not applied to a line headed by its entry.
UniProt P08670: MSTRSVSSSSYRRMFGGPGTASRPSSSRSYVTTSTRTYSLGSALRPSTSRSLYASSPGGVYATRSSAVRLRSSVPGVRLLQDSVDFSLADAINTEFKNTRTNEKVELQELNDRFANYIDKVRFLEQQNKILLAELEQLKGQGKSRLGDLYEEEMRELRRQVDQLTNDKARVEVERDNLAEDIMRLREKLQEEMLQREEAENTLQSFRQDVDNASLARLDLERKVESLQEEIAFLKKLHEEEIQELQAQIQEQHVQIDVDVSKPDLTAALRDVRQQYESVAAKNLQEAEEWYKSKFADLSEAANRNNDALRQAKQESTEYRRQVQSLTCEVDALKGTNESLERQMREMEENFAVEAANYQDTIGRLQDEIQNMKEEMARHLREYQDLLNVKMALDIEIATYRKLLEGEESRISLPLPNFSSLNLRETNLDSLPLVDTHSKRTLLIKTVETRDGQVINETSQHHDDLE
UniProt P49792: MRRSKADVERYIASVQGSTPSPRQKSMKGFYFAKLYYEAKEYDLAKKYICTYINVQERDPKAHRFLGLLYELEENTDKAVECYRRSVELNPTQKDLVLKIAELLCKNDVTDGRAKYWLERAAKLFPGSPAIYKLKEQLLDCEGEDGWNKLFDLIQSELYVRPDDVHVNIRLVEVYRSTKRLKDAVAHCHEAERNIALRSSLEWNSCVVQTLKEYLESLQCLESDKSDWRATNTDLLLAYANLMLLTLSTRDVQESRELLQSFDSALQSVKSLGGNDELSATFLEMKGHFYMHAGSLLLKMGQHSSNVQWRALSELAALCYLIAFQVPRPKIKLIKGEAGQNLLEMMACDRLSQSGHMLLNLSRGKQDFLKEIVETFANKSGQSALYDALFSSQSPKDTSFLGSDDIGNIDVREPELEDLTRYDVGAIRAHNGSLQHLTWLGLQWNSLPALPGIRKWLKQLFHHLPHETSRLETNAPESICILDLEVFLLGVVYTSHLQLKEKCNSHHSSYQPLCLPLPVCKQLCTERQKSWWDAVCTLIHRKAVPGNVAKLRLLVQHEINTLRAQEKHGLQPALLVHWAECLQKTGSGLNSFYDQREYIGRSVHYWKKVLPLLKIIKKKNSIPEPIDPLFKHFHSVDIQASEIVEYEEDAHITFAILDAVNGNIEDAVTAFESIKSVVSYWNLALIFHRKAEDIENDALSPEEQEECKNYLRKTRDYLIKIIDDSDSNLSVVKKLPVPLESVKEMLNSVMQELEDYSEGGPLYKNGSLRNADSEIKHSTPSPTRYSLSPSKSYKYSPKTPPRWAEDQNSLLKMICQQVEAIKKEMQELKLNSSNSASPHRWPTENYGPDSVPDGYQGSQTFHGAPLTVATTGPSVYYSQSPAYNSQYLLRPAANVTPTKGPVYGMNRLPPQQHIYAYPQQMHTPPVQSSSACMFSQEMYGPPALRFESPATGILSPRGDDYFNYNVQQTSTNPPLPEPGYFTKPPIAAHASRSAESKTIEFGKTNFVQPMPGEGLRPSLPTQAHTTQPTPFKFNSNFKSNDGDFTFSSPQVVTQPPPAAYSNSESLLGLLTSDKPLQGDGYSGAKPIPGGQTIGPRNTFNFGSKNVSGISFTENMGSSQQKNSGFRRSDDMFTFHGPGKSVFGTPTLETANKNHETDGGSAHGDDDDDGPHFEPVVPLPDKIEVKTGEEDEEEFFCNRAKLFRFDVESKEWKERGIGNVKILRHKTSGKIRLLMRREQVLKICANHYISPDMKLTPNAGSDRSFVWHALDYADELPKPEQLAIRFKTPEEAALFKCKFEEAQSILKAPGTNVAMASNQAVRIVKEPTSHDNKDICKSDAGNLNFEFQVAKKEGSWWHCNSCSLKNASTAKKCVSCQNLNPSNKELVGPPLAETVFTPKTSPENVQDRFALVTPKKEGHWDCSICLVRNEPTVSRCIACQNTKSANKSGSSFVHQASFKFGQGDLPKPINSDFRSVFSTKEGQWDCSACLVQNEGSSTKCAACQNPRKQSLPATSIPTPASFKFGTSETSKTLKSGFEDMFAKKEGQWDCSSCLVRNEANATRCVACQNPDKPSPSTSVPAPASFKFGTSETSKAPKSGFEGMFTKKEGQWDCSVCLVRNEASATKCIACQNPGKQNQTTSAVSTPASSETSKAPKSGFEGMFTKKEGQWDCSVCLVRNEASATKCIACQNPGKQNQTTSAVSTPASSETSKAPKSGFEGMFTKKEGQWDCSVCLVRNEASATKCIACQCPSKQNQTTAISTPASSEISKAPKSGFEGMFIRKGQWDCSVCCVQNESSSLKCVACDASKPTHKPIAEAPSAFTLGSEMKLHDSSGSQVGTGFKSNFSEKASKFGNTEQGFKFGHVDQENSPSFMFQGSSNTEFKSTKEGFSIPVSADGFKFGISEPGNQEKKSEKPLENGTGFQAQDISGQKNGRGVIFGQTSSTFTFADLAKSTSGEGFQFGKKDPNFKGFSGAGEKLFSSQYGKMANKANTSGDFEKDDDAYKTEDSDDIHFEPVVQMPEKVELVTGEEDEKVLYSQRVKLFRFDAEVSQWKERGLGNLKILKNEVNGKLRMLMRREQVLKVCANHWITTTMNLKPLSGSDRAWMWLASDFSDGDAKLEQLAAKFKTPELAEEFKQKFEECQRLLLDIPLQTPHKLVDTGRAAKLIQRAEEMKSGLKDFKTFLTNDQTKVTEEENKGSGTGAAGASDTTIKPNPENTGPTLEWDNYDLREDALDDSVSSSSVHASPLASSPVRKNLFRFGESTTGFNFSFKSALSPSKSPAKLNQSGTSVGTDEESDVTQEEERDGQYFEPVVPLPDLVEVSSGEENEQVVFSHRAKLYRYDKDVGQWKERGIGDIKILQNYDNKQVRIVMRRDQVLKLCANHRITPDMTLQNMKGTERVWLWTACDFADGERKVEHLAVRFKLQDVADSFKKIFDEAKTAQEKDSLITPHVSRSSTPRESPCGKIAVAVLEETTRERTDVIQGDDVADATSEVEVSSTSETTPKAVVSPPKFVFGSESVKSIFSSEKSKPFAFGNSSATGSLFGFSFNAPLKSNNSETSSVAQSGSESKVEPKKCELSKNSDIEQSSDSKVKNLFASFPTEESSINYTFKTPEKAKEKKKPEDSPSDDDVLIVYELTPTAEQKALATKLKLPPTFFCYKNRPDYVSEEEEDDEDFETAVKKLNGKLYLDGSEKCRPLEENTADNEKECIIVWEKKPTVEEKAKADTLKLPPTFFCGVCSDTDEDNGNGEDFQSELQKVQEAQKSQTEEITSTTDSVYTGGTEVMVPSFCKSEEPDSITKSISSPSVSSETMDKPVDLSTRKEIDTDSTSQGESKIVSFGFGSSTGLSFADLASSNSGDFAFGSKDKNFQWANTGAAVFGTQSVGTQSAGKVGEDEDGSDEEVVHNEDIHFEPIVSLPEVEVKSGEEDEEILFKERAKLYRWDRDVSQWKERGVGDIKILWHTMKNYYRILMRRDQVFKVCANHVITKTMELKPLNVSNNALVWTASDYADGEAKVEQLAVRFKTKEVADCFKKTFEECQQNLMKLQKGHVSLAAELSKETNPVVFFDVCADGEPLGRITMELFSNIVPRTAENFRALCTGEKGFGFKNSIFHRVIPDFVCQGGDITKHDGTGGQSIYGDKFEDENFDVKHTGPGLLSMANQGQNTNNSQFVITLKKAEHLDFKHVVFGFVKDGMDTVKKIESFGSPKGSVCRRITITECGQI

Experiments:
Assay in all cases: co-IP; GFP-coprecipitation: cell lysates in NP-40 lysis buffer (10 mM Tris/HCl pH 7.5, 150 mM NaCl, 5 mM EDTA, 0.5% NP-40) on GFP-trap A beads, 4 °C, 15-120 min, three washes; immunoblot
GFP-tagged vimentin = GFP-tagged vimentin (UniProt P08670)
GFP-tagged Nup88 = biological target: T1, GFP-tagged Nup88 (UniProt Q99567)
T1 sequence: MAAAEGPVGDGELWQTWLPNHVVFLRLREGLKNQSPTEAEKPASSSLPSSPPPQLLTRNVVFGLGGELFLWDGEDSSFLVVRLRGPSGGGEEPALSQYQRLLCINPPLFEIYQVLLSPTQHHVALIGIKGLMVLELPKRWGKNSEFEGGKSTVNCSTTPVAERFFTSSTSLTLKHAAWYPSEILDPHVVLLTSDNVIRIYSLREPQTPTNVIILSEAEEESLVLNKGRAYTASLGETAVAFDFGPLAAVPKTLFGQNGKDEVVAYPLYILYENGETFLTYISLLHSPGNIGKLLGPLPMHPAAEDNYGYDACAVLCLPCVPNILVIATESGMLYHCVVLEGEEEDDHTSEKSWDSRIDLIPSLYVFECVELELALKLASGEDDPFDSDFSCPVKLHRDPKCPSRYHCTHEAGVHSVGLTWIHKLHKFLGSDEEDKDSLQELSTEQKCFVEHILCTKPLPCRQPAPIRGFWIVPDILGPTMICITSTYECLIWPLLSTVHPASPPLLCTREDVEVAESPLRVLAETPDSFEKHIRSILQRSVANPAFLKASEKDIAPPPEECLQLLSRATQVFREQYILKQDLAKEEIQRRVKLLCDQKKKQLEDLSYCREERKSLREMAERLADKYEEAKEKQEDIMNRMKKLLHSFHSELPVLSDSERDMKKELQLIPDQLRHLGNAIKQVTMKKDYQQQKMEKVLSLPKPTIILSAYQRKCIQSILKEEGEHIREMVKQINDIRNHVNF

Nup88(1-541)-GFP = biological target: T2, Nup88(1-541)-GFP (UniProt Q99567)
T2 sequence: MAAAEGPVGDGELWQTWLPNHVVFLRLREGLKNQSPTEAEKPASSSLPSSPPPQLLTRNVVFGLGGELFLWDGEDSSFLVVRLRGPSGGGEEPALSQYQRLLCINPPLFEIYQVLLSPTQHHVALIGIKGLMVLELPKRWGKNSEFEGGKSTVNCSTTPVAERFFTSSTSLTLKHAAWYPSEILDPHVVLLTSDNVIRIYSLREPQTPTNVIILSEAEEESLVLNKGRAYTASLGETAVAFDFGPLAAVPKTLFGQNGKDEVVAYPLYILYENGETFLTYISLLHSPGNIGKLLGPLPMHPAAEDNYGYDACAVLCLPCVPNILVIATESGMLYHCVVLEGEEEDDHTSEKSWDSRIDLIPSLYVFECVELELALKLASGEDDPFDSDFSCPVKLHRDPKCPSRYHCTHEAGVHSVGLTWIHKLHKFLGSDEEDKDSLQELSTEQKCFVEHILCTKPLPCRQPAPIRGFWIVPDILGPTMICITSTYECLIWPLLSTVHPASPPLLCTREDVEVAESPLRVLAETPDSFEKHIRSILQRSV

Nup88(303-741)-GFP = biological target: T3, Nup88(303-741)-GFP (UniProt Q99567)
T3 sequence: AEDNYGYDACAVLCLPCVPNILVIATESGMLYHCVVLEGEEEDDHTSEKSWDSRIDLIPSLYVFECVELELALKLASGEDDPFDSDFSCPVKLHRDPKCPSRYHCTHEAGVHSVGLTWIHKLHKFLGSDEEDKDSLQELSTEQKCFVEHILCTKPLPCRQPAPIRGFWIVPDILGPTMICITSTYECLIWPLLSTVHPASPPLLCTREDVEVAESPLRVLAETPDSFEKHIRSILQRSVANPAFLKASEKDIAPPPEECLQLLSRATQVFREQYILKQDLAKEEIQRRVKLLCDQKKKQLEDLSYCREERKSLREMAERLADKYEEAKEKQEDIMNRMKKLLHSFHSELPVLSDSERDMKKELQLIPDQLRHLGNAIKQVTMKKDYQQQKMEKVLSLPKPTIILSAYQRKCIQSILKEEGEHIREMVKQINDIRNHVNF

GFP-tagged Nup50 = biological target: T4, GFP-tagged Nup50 (UniProt Q9UKX7)
T4 sequence: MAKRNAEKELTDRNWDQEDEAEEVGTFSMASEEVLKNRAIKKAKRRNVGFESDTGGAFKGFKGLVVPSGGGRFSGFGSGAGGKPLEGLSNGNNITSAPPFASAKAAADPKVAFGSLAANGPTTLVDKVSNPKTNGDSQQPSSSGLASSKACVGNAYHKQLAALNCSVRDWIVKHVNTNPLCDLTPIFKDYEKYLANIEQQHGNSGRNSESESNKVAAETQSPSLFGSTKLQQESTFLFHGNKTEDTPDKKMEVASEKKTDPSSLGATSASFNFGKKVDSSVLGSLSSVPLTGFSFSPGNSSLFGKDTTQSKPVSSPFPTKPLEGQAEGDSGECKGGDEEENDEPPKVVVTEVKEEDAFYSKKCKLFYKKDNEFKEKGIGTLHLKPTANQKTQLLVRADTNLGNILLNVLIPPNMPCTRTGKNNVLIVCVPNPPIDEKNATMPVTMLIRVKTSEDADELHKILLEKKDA

Q: How did the binding (GFP-tagged vimentin) turn out when “Halo-tagged Nup358 (from UniProt P49792 1-3224)” was run?
A: The binding was “no binding”.

Q: How did the binding (GFP-tagged Nup88) turn out when “N-terminal truncated vimentin (Δ1-96-FLAG) (from UniProt P08670 97-466) (domain or fragment)” was run?
A: Its binding is “binds”.

Q: With “vimentin (endogenous, HeLa) (from UniProt P08670 1-466)” as the substance, how does the binding (Nup88(1-541)-GFP) read?
A: Its binding is “binds”.

Q: And the binding (Nup88(303-741)-GFP)?
A: The binding was “no binding”.

Q: What about the binding (GFP-tagged Nup50) of the same substance?
A: The binding was “no binding”.
